{
  "source": "PubChem BioAssay AID624296",
  "about": "(National Center for Advancing Translational Sciences (NCATS), 2012)",
  "note": "Screen size: about 350,000 compounds; about 9,900 (2.8%) were called active. Inconclusive means that the source gave no clear call. Such entries were picked first, then a sample of the others. Calls come from the whole dose curve; as a rule, active = well fitted activation curve with a large enough effect; inconclusive = small, poorly fitted or top-dose-only effect; inactive = no such curve, though single readings can be large or run the other way. Potencies of inconclusive entries are left out as doubtful fits. A structure can be active in one record and inactive in another. Potency is the fitted concentration of half-maximal effect; tags give direction and shape of the fitted curve.",
  "data": [
    {"assay": "A quantitative high throughput screen for small molecules that induce DNA re-replication in MCF 10a normal breast cells; note: nearly all actives have a fitted effect of over 50% in size; for activity, positive = re-replication: % of control where 0% means no effect.", "conditions": "MCF 10A DNA re-replication, Hoechst nuclear intensity, 48 h; activity, positive = re-replication: at 46.1 µM (top of the series)", "values": [
      {"smiles": "Cc1nc(C)c(C(=O)NN=Cc2ccc(N(CCCl)CCCl)cc2)s1", "Potency": "inconclusive [activator, single point]"},
      {"smiles": "CN(C(=O)CNC(=O)OCc1ccccc1)c1ccc(Br)cc1C(=O)c1ccccc1Cl", "Potency": "active: 8.2 µM"},
      {"smiles": "CC(C)CCC[C@@H](C)[C@H]1CC[C@H]2[C@@H]3C(=O)C=C4C[C@@H](O)CC[C@]4(C)[C@H]3CC[C@]12C", "Potency": "inconclusive [activator, single point]"},
      {"smiles": "CN1C(=O)/C(=C\\N2CCc3ccccc32)C(=O)NC1=S", "activity, positive = re-replication": "inactive: -4.62%"},
      {"smiles": "C#CCOc1ccc(OC)cc1C(c1c(C)[nH][nH]c1=O)c1c(C)[nH][nH]c1=O", "Potency": "inconclusive [activator, single point]"},
      {"smiles": "CCOc1ccc(-n2c(O)c(N=Nc3ccc([N+](=O)[O-])cc3)c(=O)[nH]c2=O)cc1", "Potency": "inconclusive [activator, single point]"},
      {"smiles": "CC(=NCCO)c1c(O)n(C)c(=O)n(C)c1=O", "activity, positive = re-replication": "inactive: -5.02%"},
      {"smiles": "CCCCn1c(O)c(C(=O)/C=C/c2ccc3c(c2)OCO3)c(=O)[nH]c1=O", "Potency": "inconclusive [activator, partial curve]"},
      {"smiles": "CC[C@H]1CN2CCc3cc(OC)c(OC)cc3C2C[C@@H]1C[C@H]1NCCc2cc(OC)c(OC)cc21", "note": "(stereo partly specified)", "Potency": "inconclusive [activator, full curve, poor fit]"},
      {"smiles": "O=C(COc1ccc(Br)cc1)N1CCN(Cc2c[nH]c3ccccc23)CC1", "Potency": "inconclusive [activator, full curve]"},
      {"smiles": "O=C1C=CC(=O)C=C1", "activity, positive = re-replication": "inactive: 1.34%"},
      {"smiles": "Nc1nc(F)nc2c1ncn2[C@@H]1O[C@H](CO)[C@@H](O)[C@H]1O", "Potency": "active: 4.11 µM"},
      {"smiles": "CN(C)c1ccc(/C=C/C=C2/C(=O)NC(=O)N(c3ccccc3)C2=O)cc1", "Potency": "inconclusive [activator, single point]"},
      {"smiles": "CN1CSC(=S)N(C)C1", "activity, positive = re-replication": "inactive: 0.208%"},
      {"smiles": "CCC(=NCCC1=CCCCC1)c1c(O)[nH]c(=O)[nH]c1=O", "Potency": "inconclusive [activator, partial curve, poor fit]"},
      {"smiles": "CC(C)CCn1c(N)c(C(=O)OCC2CCCO2)c2nc3ccccc3nc21", "note": "(stereo unspecified)", "Potency": "inconclusive [activator, single point]"},
      {"smiles": "CC(C)c1ccc(OCC(=O)N2CCCN(C)CC2)cc1", "Potency": "inconclusive [activator, partial curve, poor fit]"},
      {"smiles": "COc1ccc(CC(=O)NC(=S)NNC(=O)COc2c(C)cccc2C)cc1", "Potency": "inconclusive [activator, single point]"},
      {"smiles": "CCOc1ccc(-n2c(-c3ccoc3)nc3ccccc3c2=O)cc1", "activity, positive = re-replication": "inactive: -8.6%"},
      {"smiles": "COc1ccc(S(=O)(=O)NCc2ccc(C(=O)N3CCC4(CC3)OCCO4)cc2)cc1", "Potency": "inconclusive [activator, full curve, poor fit]"},
      {"smiles": "O=S1(=O)N(Cc2ccc(F)cc2)CCCN1Cc1ccccc1Cl", "Potency": "inconclusive [activator, partial curve, poor fit]"},
      {"smiles": "COc1ccc(/C=N/N=C(/N)N[N+](=O)[O-])c(OC)c1", "Potency": "inconclusive [activator, partial curve, poor fit]"},
      {"smiles": "O=C(c1c[nH]cc1-c1ccccc1)c1cccc2ccccc12", "activity, positive = re-replication": "inactive: 17.2%"},
      {"smiles": "O=C(c1cc(C(=O)NCc2ccccc2)c(=O)n(Cc2ccccc2)c1)c1cc(Cl)ccc1O", "Potency": "inconclusive [activator, partial curve, poor fit]"},
      {"smiles": "Nc1ccc2c(c1)oc1ccccc12", "activity, positive = re-replication": "inactive: -0.435%"},
      {"smiles": "CCc1cc(=O)oc2c(C)c(OCC(=O)N3CCC[C@@H]3C(=O)O)ccc12", "activity, positive = re-replication": "inactive: -11%"},
      {"smiles": "N#CC1=C(N)Oc2c(c(=O)oc3ccccc23)C1c1ccccc1OC(=O)c1cccs1", "note": "(stereo unspecified)", "Potency": "active: 20.6 µM"},
      {"smiles": "COC(=O)C1=C(c2ccc(OC)c(OC)c2)C[C@@H]2CC[C@H]1N2C(=O)NC1Cc2ccccc2C1", "activity, positive = re-replication": "inactive: -8.84%"},
      {"smiles": "COc1cccc2cc(-c3cc(=O)oc4ccc(OC(=O)N(C)C)cc34)oc12", "Potency": "inconclusive [activator, single point]"},
      {"smiles": "CN1CCC(O)(c2cccs2)C(C(=O)c2cccs2)C1", "note": "(stereo unspecified)", "Potency": "inconclusive [activator, single point]"},
      {"smiles": "O=C(CCc1ccccc1)N1C[C@H]2C[C@@H](C1)c1cccc(=O)n1C2", "activity, positive = re-replication": "inactive: -1.85%"},
      {"smiles": "Cc1nn(-c2ccccc2)c2c1P(=O)(O)/C(=C1\\N(C)c3ccccc3C1(C)C)C=N2", "Potency": "active: 11.6 µM"},
      {"smiles": "CCC(=O)Nc1ccc(C(=O)OCc2ccccc2Cl)cc1", "Potency": "inconclusive [activator, single point]"},
      {"smiles": "Cn1c(O)c(C=NC2CC3CCC2(C)C3(C)C)c(=O)[nH]c1=O", "note": "(stereo unspecified)", "Potency": "inconclusive [activator, partial curve, poor fit]"},
      {"smiles": "Cc1cccc(-n2c(O)c(/C=N/Nc3nc4c(c(=O)n(C)c(=O)n4C)n3C)c(=O)[nH]c2=S)c1", "Potency": "inconclusive [activator, partial curve, poor fit]"},
      {"smiles": "Cc1nn(Cc2ccccc2)c(Cl)c1C(=O)NC1CCCc2ccccc21", "note": "(stereo unspecified)", "Potency": "inconclusive [activator, single point]"},
      {"smiles": "CN=C(SCC(=O)c1cccc(Cl)c1)c1c(O)n(C)c(=O)n(C)c1=O", "Potency": "inconclusive [activator, partial curve, poor fit]"},
      {"smiles": "CC(C)N1C(=S)SC(C)(C)C1n1oc(=O)n(-c2ccc(Cl)c(Cl)c2)c1=O", "note": "(stereo unspecified)", "Potency": "inconclusive [activator, single point]"},
      {"smiles": "CN(C)C(=O)O/N=C(\\N)COc1ccc(C(C)(C)C)cc1", "Potency": "inconclusive [activator, single point]"},
      {"smiles": "O=C1NC(=O)N(Cc2ccco2)C(=O)/C1=C/c1cccn1CCOc1ccccc1Cl", "Potency": "inconclusive [activator, single point]"},
      {"smiles": "CCOC(=O)c1ccc(CNCc2ccc(Br)cc2)cc1", "Potency": "inconclusive [activator, partial curve, poor fit]"},
      {"smiles": "CC(C(=O)c1c[nH]c2ccccc12)N1CCSCC1", "note": "(stereo unspecified)", "activity, positive = re-replication": "inactive: -5.42%"},
      {"smiles": "CC(C)CCC(=O)OC1CCC2C3CCC4=CC(=O)CC[C@]4(C)C3CC[C@]12C", "note": "(stereo partly specified)", "Potency": "inconclusive [activator, single point]"},
      {"smiles": "Cc1cc2c(C(F)(F)F)cc(=O)oc2c2c1NCCC2", "activity, positive = re-replication": "inactive: 0.598%"},
      {"smiles": "CCOC(=O)c1ccccc1N", "Potency": "inconclusive [activator, single point]"},
      {"smiles": "CN(C)CCN(CC1CCCN(Cc2ccccc2F)C1)C(=O)Cc1ccc(F)c(F)c1", "note": "(stereo unspecified)", "Potency": "inconclusive [activator, full curve, poor fit]"},
      {"smiles": "Cc1cc(/C=C2\\C(=O)NC(=O)N(c3cccc(F)c3)C2=O)c(C)n1-c1cc(C(=O)O)cc(C(=O)O)c1", "Potency": "inconclusive [activator, partial curve, poor fit]"},
      {"smiles": "CC(=O)OC1N=C(c2ccccc2)c2ccccc2NC1=O", "note": "(stereo unspecified)", "Potency": "inconclusive [activator, single point]"},
      {"smiles": "COC(=O)C1=C(c2ccc(F)cc2OCc2ccccc2)C[C@@H]2CC[C@H]1N2C(=O)NCCOc1ccccc1", "Potency": "inconclusive [activator, partial curve, poor fit]"},
      {"smiles": "N=c1c2c(n(Cc3ccc(Cl)cc3Cl)c3c1CCC3)CCCC2", "activity, positive = re-replication": "inactive: 18.3%"},
      {"smiles": "O=c1oc(-c2cccc(C(F)(F)F)c2)nn1-c1ccc(C(F)(F)F)cn1", "Potency": "inconclusive [activator, single point]"},
      {"smiles": "Cn1cc(C(=O)OCC(=O)NC2CCCCC2)c2ccccc21", "Potency": "inconclusive [activator, single point]"},
      {"smiles": "COCCNC(=O)CN1C(=O)C(C)N=C(c2ccccc2)c2cc(Cl)ccc21", "note": "(stereo unspecified)", "activity, positive = re-replication": "inactive: -16.8%"},
      {"smiles": "COc1ccc(OCCn2cc(/C=C(\\C#N)C(=O)NCc3ccco3)c3ccccc32)cc1", "Potency": "inconclusive [activator, partial curve, poor fit]"},
      {"smiles": "O=C(c1cc2cc(F)ccc2[nH]1)N1CCC2(CC1)OCCO2", "activity, positive = re-replication": "inactive: 4.17%"},
      {"smiles": "CN(C)c1ccc(C(=O)N/N=C/C23CC[C@@H](O)CC2(O)CC[C@@H]2[C@@H]3CCC3(C)C(C4=CC(=O)OC4)CCC23O)cc1", "note": "(stereo partly specified)", "Potency": "inconclusive [activator, full curve]"},
      {"smiles": "CCc1ccc(N2C(=O)NC(=O)/C(=C/c3cccn3CCOc3ccc(C(C)CC)cc3)C2=O)cc1", "note": "(stereo unspecified)", "Potency": "active: 13 µM"},
      {"smiles": "COc1ccc(CCNCc2sccc2C)cc1OC", "Potency": "inconclusive [activator, full curve, poor fit]"},
      {"smiles": "C[C@]12CC[C@@H]3c4cc(O)c(O)cc4CC[C@H]3[C@@H]1CC[C@@H]2O", "Potency": "active: 25.9 µM"},
      {"smiles": "CCOC(=O)c1c(N)n(CCN2CCCCC2)c2nc3ccccc3nc12", "Potency": "inconclusive [activator, partial curve]"},
      {"smiles": "O=C(NCCCn1ccnc1)C(Cl)(Cl)Cl", "Potency": "inconclusive [activator, single point]"},
      {"smiles": "C[C@@]12CCC(=O)C=C1C=C[C@H]1[C@H]3CC[C@](O)(CCC(=O)O)[C@]3(C)CC[C@@H]12", "activity, positive = re-replication": "inactive: 2.67% [at 20.6 µM]"},
      {"smiles": "CNC(=O)Oc1cc2c(cc1C(C)(C)C)CCC2", "Potency": "inconclusive [activator, single point]"},
      {"smiles": "C[C@]12C/C(=C/O)C(=O)C[C@@H]1CC[C@@H]1[C@@H]2CC[C@@]2(C)[C@H]1CC[C@]2(C)O", "Potency": "inconclusive [activator, single point]"},
      {"smiles": "COc1ccc(CCN(C)Cc2c(F)cccc2F)cc1OC", "Potency": "inconclusive [activator, single point]"},
      {"smiles": "CCCCCn1c(=O)c(C(=O)NCc2ccccn2)c(O)c2ccccc21", "Potency": "inconclusive [activator, single point]"}
    ]}
  ]
}
